# Test results as given in the supplement of paper PMC11060735.
# “And” between values parts separate entries of the source, which are not always exact repeats. Equal entries are not always repeated. Structures can show the parent of a compound that is named as a salt. Hit rate of the full screen: of about 1,800 compounds, about 50 (3%) showed activity. The list shows a part of the results.
# Tested on: mouse p16Ink4a+/- lung fibroblasts (INKBRITE, bleomycin-injured)
# Assay: percentage of GFP+ (p16Ink4a+) fibroblasts among all cells in well; higher = less depletion of p16Ink4a+ cells, active = 20 or less
# Conditions: 1 µM; 3 days
# 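Also: fibroblasts sorted 14 days after bleomycin, GFP+ and GFP− mixed 1:1 in 384-well plates (GFP− as in-well control), imaged after Hoechst and NucView530 staining, reference wells lacked compound.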
row,SMILES,percentage of GFP+
1,CC(=O)Oc1cc(C(F)(F)F)ccc1C(=O)O [Triflusal],inactive: 44.5%
2,Cc1ccc(C(=O)c2cc(O)c(O)c([N+](=O)[O-])c2)cc1 [Tolcapone],inactive: 47.5%
3,C[C@H](Cc1cc2c(c(C(N)=O)c1)N(CCCO)CC2)NCCOc1ccccc1OCC(F)(F)F [Silodosin],inactive: 34.1%
4,CCOC(=O)c1ccc(NC2CCCCC2)c(N)c1 [Ferrostatin-1 (Fer-1)],inactive: 54%
5,O=C1NC(=O)/C(=C/c2ccc(-c3ccc(F)cc3O)o2)S1,inactive: 57.2%
6,CCc1cc2c(cc1CC)CC(NC[C@H](O)c1ccc(O)c3nc(O)ccc13)C2 [Indacaterol],inactive: 44.5%
7,OCC(CO)N[C@H]1C[C@](O)(CO)[C@@H](O)[C@H](O)[C@H]1O [Voglibose],inactive: 54.3%
8,O=C(O)Cn1nnc(-c2cc(N3CCC(Oc4cc(F)ccc4Br)CC3)no2)n1,inactive: 45.3%
9,CN(C)CCN(Cc1ccccc1)c1ccccn1 [Tripelennamine],inactive: 45.6%
10,CNC(=O)c1c(F)cccc1Nc1nc(Nc2cc3c(cc2OC)CCN3C(=O)CN(C)C)nc2[nH]ccc12,inactive: 50.1%
11,COc1c2ccoc2cc2oc(=O)ccc12 [Bergapten],inactive: 44.6%
12,Cc1ccc(S(=O)(=O)OCC(=O)Nc2ccc(C(=O)O)c(O)c2)cc1,inactive: 44.4%
13,CC(=O)Oc1cc2c(s1)CCN(C(C(=O)C1CC1)c1ccccc1F)C2 (stereo unspecified) [Prasugrel],inactive: 49.3%
14,Nc1ccc(C(=O)O)c(O)c1 [Aminosalicylic Acid],inactive: 51.1%
15,"CN(C)CCCN1c2ccccc2Sc2ccc(Cl)cc21 [Chlorpromazine Hydrochloride, Chlorpromazine]",inactive: 50.8%
16,Cn1nnc2c(C(N)=O)ncn2c1=O [Temozolomide],inactive: 29.2%
17,C[C@H]1c2cccc(O)c2C(=O)C2=C(O)[C@]3(O)C(O)=C(C(N)=O)C(=O)[C@@H](N(C)C)[C@@H]3[C@@H](O)[C@@H]21 [Doxycycline],inactive: 48.7% and inactive: 54.2%
18,COC(=O)[C@H](c1ccccc1Cl)N1CCc2sccc2C1 [Clopidogrel],inactive: 36.5%
19,CN1c2ccccc2C(=O)N2CCc3c([nH]c4ccccc34)C21 (stereo unspecified) [Evodiamine],inactive: 30.8%
20,Cc1ccc(S(=O)(=O)/C=C/C#N)cc1,inactive: 35.5%
21,"Cc1ccc(-c2nn(C(C)(C)C)c3ncnc(N)c23)cc1 [1-Ter-Butyl-3-P-Tolyl-1h-Pyrazolo[3,4-D]Pyrimidin-4-Ylamine]",inactive: 49.9%
22,O=C1c2c(O)cc(O)cc2O[C@H](c2cc(O)c(O)c(O)c2)[C@H]1O [Dihydromyricetin],inactive: 41%
23,CS(=O)(=O)Nc1ccc([N+](=O)[O-])cc1Oc1ccccc1 [Nimesulide],inactive: 36.5%

row,SMILES,percentage of GFP+
1,CC(C)(F)C[C@H](N[C@@H](c1ccc(-c2ccc(S(C)(=O)=O)cc2)cc1)C(F)(F)F)C(=O)NC1(C#N)CC1 [Odanacatib],inactive: 44.3%
2,O=C(O)c1ccccc1O [Salicylic Acid],inactive: 46.6%
3,CCCCOc1cc(C(=O)OCCN(CC)CC)ccc1N [Oxybuprocaine],inactive: 43.5%
4,CN1CC[C@@H](c2c(O)cc(O)c3c(=O)cc(-c4ccccc4Cl)oc23)[C@@H]1CO,inactive: 20.2%
5,CC(C)c1cnn2c(NCc3ccccc3)cc(NCCCCCCN)nc12,inactive: 34.8%
6,Cn1cnc(-c2cc3nccc(Oc4ccc(NC(=S)NC(=O)Cc5ccccc5)cc4F)c3s2)c1,inactive: 36.4%
7,Cc1onc(-c2ccccc2Cl)c1C(=O)N[C@@H]1C(=O)N2[C@@H]1SC(C)(C)[C@@H]2C(=O)O [Cloxacillin],inactive: 43.1%
8,CC(C(O)c1ccc(O)cc1)N1CCC(Cc2ccccc2)CC1 (stereo unspecified) [Ifenprodil],inactive: 47%
9,N=C(N)/N=C(\N)N1CCOCC1 [Moroxydine Hydrochloride],inactive: 40%
10,CCOc1nc2cccc(C(=O)O)c2n1Cc1ccc(-c2ccccc2-c2noc(O)n2)cc1 [Azilsartan],inactive: 52.8%
11,O=c1cc(-c2ccc(O)cc2)oc2cc(O)cc(O)c12 [Apigenin],inactive: 37.2%
12,O=C1c2c(O)ccc(O)c2C(=O)c2c(NCCNCCO)ccc(NCCNCCO)c21 [Mitoxantrone],inactive: 35.4%
13,Cc1cncc(CN2CCC(=C3c4ccc(Cl)cc4CCc4cccnc43)CC2)c1 [Rupatadine],inactive: 37.6%
14,NC(=O)c1ccc(I)c([N+](=O)[O-])c1 [Iniparib],inactive: 40.5%
15,CC[N+](CC)(CC)CCOc1cccc(OCC[N+](CC)(CC)CC)c1OCC[N+](CC)(CC)CC [Gallamine Triethiodide],inactive: 36%
16,Cn1cc(C2=C(c3ccc(Cl)cc3Cl)C(=O)NC2=O)c2ccccc21,inactive: 47.8%
17,CC(C)(Oc1ccc(Cl)cc1)C(=O)OCCOC(=O)c1cccnc1 [Etofibrate],inactive: 50.4%
18,O=C(CCc1ccc(O)cc1)c1c(O)cc(O)cc1O [Phloretin],inactive: 45.6%
19,CCCC(=O)Nc1ccc(OCC(O)CNC(C)C)c(C(C)=O)c1 (stereo unspecified) [Acebutolol],inactive: 52%
20,Nc1ncnc2c1c(-c1cnc3[nH]ccc3c1)nn2C1CCCC1,inactive: 22%
21,CC(=O)O[C@H]1CC[C@@]2(C)C(=CC[C@H]3[C@H]2CC[C@]2(C)C(c4cccnc4)=CC[C@@H]32)C1 [Abiraterone Acetate],inactive: 31.7%
22,O=P(O)(O)C(O)(Cn1ccnc1)P(=O)(O)O [Zoledronic Acid],inactive: 49.5%
23,CC[C@H]1OC(=O)[C@H](C)[C@@H](O[C@H]2C[C@@](C)(OC)[C@@H](O)[C@H](C)O2)[C@H](C)[C@@H](O[C@@H]2O[C@H](C)C[C@H](N(C)C)[C@H]2O)[C@@](C)(O)C[C@@H](C)[C@@H]2N[C@@H](COCCOC)OC([C@H]2C)[C@]1(C)O [Dirithromycin],inactive: 47.1%
